# Reference: PubChem BioAssay AID488969 (Vanderbilt High Throughput Screening Facility, 2010)
# Whole data set: some 110,000 compounds, median “z-score” near -0.1, cut for the highest 2% near 2. The list shows a part of the results. Active and inactive are the calls of the source.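 Rule for the calls: active = z-score in the third read window above 3 or below -3; inactive = the rest.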
# Target: Metabotropic glutamate receptor 8 (Rattus norvegicus) (UniProt P70579)
# Test: rat mGluR8 modulators via GIRK flux, primary screen, cell-based, thallium flux, HTS (AID 488969)
# Conditions: HEK293 rat mGluR8, GIRK (G protein-gated inwardly rectifying potassium channel) thallium flux, FluoZin2; at 10 µM; stronger effect = higher value; submaximal glutamate (EC20) added with thallium
# Chain of UniProt P70579 (P70579 whole entry, looked up): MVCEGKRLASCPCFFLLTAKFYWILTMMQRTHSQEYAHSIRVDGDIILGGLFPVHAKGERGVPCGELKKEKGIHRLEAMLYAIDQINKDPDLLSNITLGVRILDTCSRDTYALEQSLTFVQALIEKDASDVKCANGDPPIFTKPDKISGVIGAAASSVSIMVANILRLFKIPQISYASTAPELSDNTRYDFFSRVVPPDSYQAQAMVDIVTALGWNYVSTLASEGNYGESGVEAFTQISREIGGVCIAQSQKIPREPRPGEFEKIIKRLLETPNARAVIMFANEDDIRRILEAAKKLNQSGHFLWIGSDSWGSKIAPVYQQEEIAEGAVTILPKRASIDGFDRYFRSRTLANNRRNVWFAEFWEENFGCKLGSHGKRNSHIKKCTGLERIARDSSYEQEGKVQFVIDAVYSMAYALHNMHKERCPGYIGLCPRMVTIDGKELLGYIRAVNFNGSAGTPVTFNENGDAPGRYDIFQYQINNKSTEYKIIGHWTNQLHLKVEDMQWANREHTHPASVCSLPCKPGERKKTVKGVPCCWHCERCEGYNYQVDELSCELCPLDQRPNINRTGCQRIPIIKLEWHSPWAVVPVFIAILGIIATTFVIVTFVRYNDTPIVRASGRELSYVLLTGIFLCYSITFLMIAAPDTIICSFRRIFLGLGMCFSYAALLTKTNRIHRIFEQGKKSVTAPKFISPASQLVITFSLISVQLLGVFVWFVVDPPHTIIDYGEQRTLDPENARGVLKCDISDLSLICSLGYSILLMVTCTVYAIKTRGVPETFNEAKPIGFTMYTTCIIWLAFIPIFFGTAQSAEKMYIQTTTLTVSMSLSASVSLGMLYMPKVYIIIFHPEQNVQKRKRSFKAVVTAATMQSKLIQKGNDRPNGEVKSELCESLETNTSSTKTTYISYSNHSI
row,Compound,z-score
1,Cc1nn(Cc2ccccc2Cl)c(Cl)c1C(=O)NCCc1ccccc1,-0.233
2,O=C(COC(=O)c1cc(Cl)nc2ccccc12)c1ccc(Cl)cc1,-0.0843
3,CC(C)=CCc1c(O)ccc(C(=O)Cc2ccccc2)c1O,-0.128
4,CCOc1ccc(C(=O)N2CCN(C(=O)c3ccco3)CC2)cc1OCC,-0.298
5,COCCn1c(-c2ccccc2)cnc1N,0.0486
6,Cn1c(=O)c2c(nc(Oc3ccc4c(c3)OCO4)n2Cc2ccc(Cl)cc2)n(C)c1=O,-0.42
7,Cc1nc(-c2ccccc2)sc1-c1n[nH]c(=S)n1C,0.154
8,CCN1C(=C2C(=O)c3ccccc3C2=O)C=Cc2ccccc21,-0.00147
9,Nc1ccc(C(=O)N/N=C/c2sc(N3CCOCC3)nc2-c2ccccc2)cc1,-0.348
10,CCOC(=O)N1CCN(C(=O)c2cc3cc(Br)ccc3oc2=O)CC1,-0.271
11,O=C(N/N=C/c1c[nH]c2ccccc12)c1cc(-c2cccc3ccccc23)n[nH]1,-0.463
12,CC(CCc1ccccc1)NC(=O)c1nnc(Cc2ccc(Cl)cc2)o1 (configuration not stated),-1.43
13,Cc1cc(Nc2ccccc2)nn1C(=O)c1ccc(Br)cc1,-0.495
14,CCN(CC)C(=S)SCC(=O)Nc1cccc(C(F)(F)F)c1,-0.563
15,Cc1ccc(CN2C(=O)CCC2C(=O)NCCCN2CCC(C)CC2)cc1 (configuration not stated),0.511
16,COc1ccc(C(=O)Nc2ccc(Cl)c(Cl)c2)c(OC)n1,-0.192
17,CC(C)(C)n1nnnc1CN1CCSCC1,-0.0956
18,Cn1c(=O)[nH]c(=O)c2c1nc(CN1CCN(c3cccc(Cl)c3)CC1)n2CCc1ccccc1,-1.19
19,NC(N)=NS(=O)(=O)c1ccc(NC(=S)NC(=O)c2sc3ccccc3c2Cl)cc1,0.0467
20,CC(=NCCCN(C)C)C1=C(O)c2ccccc2C1=O,0.45
21,O=C(NCc1cccnc1)c1ccc(Cl)c(Cl)c1,-0.249
22,C=CCNC(=S)NNC(=O)c1ccc(OCCC)cc1,0.095
23,CCS(=O)(=O)Nc1ccc(C(=O)CC2(O)C(=O)Nc3ccc(Br)cc32)cc1 (configuration not stated),0.864

row,Compound,z-score
1,CCCc1cc(=O)oc2cc(C)cc(OC(=O)c3ccco3)c12,0.95
2,CCN(CC)S(=O)(=O)c1cccc(C(=O)N/N=C/c2ccc(OC)c(O)c2)c1,-0.0726
3,CC(C)CN(CC(C)C)C(=O)C12CCC(C)(C(=O)O1)C2(C)C (configuration not stated),-0.086
4,CCCOc1ccc(C2C(C(=O)c3ccco3)=C(O)C(=O)N2CCCn2ccnc2)cc1 (configuration not stated),-0.201
5,CC(=O)Nc1c(O)nc(SCC(=O)Nc2ccc(C(C)=O)cc2)[nH]c1=O,0.0952
6,CCCCn1c(-c2csc3c2CCCC3)n[nH]c1=S,active: 6.19
7,CCOC(=O)c1c(N)sc(C(O)(C(F)(F)F)C(F)(F)F)c1-c1ccc(OC)cc1OC,-1.15
8,CC1CCN(c2ncccc2C(=O)O)CC1,active: 4.14
9,CCOC(=O)CNC(=O)c1ccc(C#CC2(O)CCCCC2)cc1,0.063
10,O=C(CCN1CCN(C/C=C/c2ccccc2)CC1)Nc1ccccc1,1.18
11,CCC(C)C(NC(=O)c1ccccc1NC(=O)c1ccco1)C(=O)NNC(=O)c1ccc(OC)cc1 (configuration not stated),-0.0885
12,O=C(NCCCn1ccnc1)C(=O)NCc1ccc(Cl)cc1,0.217
13,O=C(COc1ccc(CO)cc1)Nc1ccc(F)cc1,-0.22
14,C/C(=N/NC(=O)c1cccs1)c1c(C)[nH]n(-c2nc3ccccc3s2)c1=O,-0.348
15,COc1ccc(-n2c(SC3CCOC3=O)nc3ccccc3c2=O)cc1OC (configuration not stated),0.147
16,O=C(c1ccc(Cl)s1)N1CCc2ccccc21,0.0123
17,CCOn1c(=O)c(-c2cccc([N+](=O)[O-])c2)[n+]([O-])c2ccccc21,-0.235
18,Nc1ccc(Cl)c(NC(=O)c2cccs2)c1,0.326
19,CCCCOC(=O)c1[nH]c(C)c(C(=O)OC)c1C,-0.217
20,COc1ccc(NC(=O)Cn2nnc(-c3ccccc3F)n2)cc1Cl,0.202
21,CCOc1cccc(-c2cc(-c3n[nH]c(=S)n3CC)c3ccccc3n2)c1,2.09
22,C=CCOc1ccc(C=Nc2cccc(Cl)c2)c(O)c1,-0.435
23,CCCCSc1cc(C)nc2ncnn12,1.8

row,Compound,z-score
1,COc1ccc(/C=N/N2CCN(C)CC2)cc1OC,-0.0951
2,Cc1nc2ccc(S(=O)(=O)NCC(=O)N3CCCCC3)cc2s1,-0.09
3,CC1(C)C(c2ccccc2)=[N+]([O-])C2(CCCCC2=O)N1O (configuration not stated),-0.0231
4,Cc1cccc2nc(CSc3ccccc3N)cn12,-0.0426
5,CC(=O)c1c(C(C)=O)c(C)n(-c2ccc(O)cc2)c1C,-0.481
6,Cc1cc(OC2CCCCC2)nc(-c2ccccc2O)n1,0.368
7,CSc1ccn(CCC(=O)O)c(=O)n1,-0.489
8,O=C(Cn1cnc2c(oc3ccccc32)c1=O)NCc1ccccc1,-0.449
9,COc1cccc(CSc2nnc(CSc3nc4nc(C)cc(C)n4n3)s2)c1,-0.0954
10,Cc1ccc(S(=O)(=O)N2CCN(Cc3nc4ccccc4n3C)CC2)cc1,-0.608
11,Cc1nnc(SCCn2c(N3CCN(C)CC3)nc3c2c(=O)n(C)c(=O)n3C)s1,-0.135
12,COc1ccc(C2C(C(=O)Nc3cccc(C)n3)c3ccccc3C(=O)N2C)cc1OC (configuration not stated),-0.119
13,COc1ccccc1-c1cn(S(=O)(=O)c2ccc(C)cc2)nc1N,0.0429
14,O=C(N/N=C/c1ccncc1)c1cc([N+](=O)[O-])cc([N+](=O)[O-])c1O,-0.0942
15,O=C(c1ccccn1)c1ncc(C(F)(F)F)cc1Cl,0.011
16,CCS(=O)(=O)N1CCCC(C(=O)NCc2cccnc2)C1 (configuration not stated),0.215
17,Cc1cc(NC(=O)C2CC(c3ccc(F)cc3)=NO2)n(-c2ccccc2)n1 (configuration not stated),0.0546
18,COC(=O)c1ccc(CSc2nc3ccc(S(=O)(=O)N4CCOCC4)cc3[nH]2)cc1,-0.624
19,COc1ccc(C(CC(=O)Nc2ccc(F)cc2)c2ccccc2)cc1 (configuration not stated),1.4
20,CN(C)c1ccc(S(=O)(=O)c2ccc(Cl)cc2)cc1,0.192
21,CC1(C)OC(=O)C(=CNc2ccccc2)C(=O)O1,-0.381
22,COCCCN1C(=O)c2ccc(C(=O)NCc3ccco3)cc2C1=O,-0.549
23,COc1cccc(C2Nc3cc(Cl)c(S(N)(=O)=O)cc3S(=O)(=O)N2)c1 (configuration not stated),0.231

row,Compound,z-score
1,CCCN1C2=NCCCN2c2ccccc21,0.397
2,CS(=O)(=O)N(CC(=O)NC1CC1)c1cccc(F)c1,0.469
3,N/C(=N\OC(=O)c1ccc(Cl)cc1)c1ccc(Cl)cc1,-0.177
4,CC(=O)c1cc(-c2ccccc2)n(CC(=O)N2CCC(N3CCCCC3)CC2)c1C,-0.319
5,COc1ccc2c(c1)c(CC(=O)Nc1ccccc1OC)c(C)n2C(=O)c1ccc(Cl)cc1,-0.262
6,COc1ccc(C(=O)C[n+]2cccc(C)c2)cc1,-0.433
7,O=C(NCc1ccncc1)/C(=C\c1ccc(F)cc1)NC(=O)c1ccccc1,-0.756
8,c1ccc(-c2nc3ccccc3s2)nc1,-0.0256
9,COC(=O)COc1ccc(S(=O)(=O)NCc2cccnc2)cc1C,0.343
10,CC(C)(C)OC(=O)NCC(=O)Oc1cc2oc(=O)cc(-c3ccccc3)c2cc1Cl,0.109
11,CC(=O)NCCC(=O)NCc1ccc(F)cc1,-0.138
12,COc1cccc(S(=O)(=O)NCc2ccc(C(=O)Nc3cccc(Cl)c3)cc2)c1,-0.232
13,Cc1ccccc1N1C(N)=NC(N)=NC1(C)C,-0.257
14,Cc1c([N+](=O)[O-])ccc(S(=O)(=O)N2CCC(C(N)=O)CC2)c1C,0.0595
15,Nc1cc(OC(=O)c2cccs2)nn1S(=O)(=O)c1ccc(F)cc1,-1.06
16,COc1ccc(NC(=S)NCCc2ccccc2)c(OC)c1,-0.465
17,Cc1ccc(NS(=O)(=O)c2ccc(NC(=O)c3cccs3)cc2)c(C)c1,-0.181
18,CSc1n[nH]c2nc3c(c(=O)n12)C1(CCCC1)Cc1ccccc1-3,-0.528
19,O=C(Nc1ccccc1-c1ccccc1)c1cc(C(F)(F)F)cc(C(F)(F)F)c1,-0.214
20,CCOC(=O)C1=C(Cc2ccc(Cl)cc2)C(=O)c2ccccc2C1=O,0.281
21,O=C(Oc1ccc2ccccc2c1)c1ccccc1,1.11
22,O=S(=O)(c1cccc(NC(=S)N2CCN(c3ccccc3F)CC2)c1)C(F)F,-0.392
23,COc1ccc(C(=O)c2sc3nc(C)cc(-c4cccs4)c3c2N)cc1,-0.662

row,Compound,z-score
1,Cc1cc(C)c(OCC(=O)Nc2cccc(O)c2)cc1C,0.575
2,CCN(CC)c1ccc(/C=N\NC(N)=O)cc1,-0.251
3,Cc1cccc(N2CCN(S(=O)(=O)c3c(C)[nH]c(=O)[nH]c3=O)CC2)c1C,-0.311
4,CCC(c1nnnn1CCOC)N(Cc1cc2c(C)cc(C)cc2[nH]c1=O)CC1CCCO1 (configuration not stated),-0.203
5,CC1=C(C(=O)Nc2ccc(Cl)cc2)C(c2ccncc2)C(C#N)=C(SCC(N)=O)N1 (configuration not stated),-0.161
6,COc1c(F)c(F)c(C(=O)Nc2ccccc2N2CCN(C(C)=O)CC2)c(F)c1F,-0.155
7,CCOC(=O)N1CCN(C(=O)CN(c2cc(Cl)ccc2OC)S(=O)(=O)c2ccccc2)CC1,-0.359
8,CCCCc1c(C)nn(-c2nnc3c4ccccc4n(C)c3n2)c1C,0.143
9,CCCOc1ccc(/C=C/C(=O)Nc2ccc([N+](=O)[O-])cc2)cc1,-0.106
10,CN(C)CCNC(=O)C1CC(=O)N(c2ccc(F)c(Cl)c2)C1 (configuration not stated),0.215
11,N#CC1=C2SCN(Cc3ccco3)CN2C(=O)CC1c1c(F)cccc1Cl (configuration not stated),-0.326
12,CCOc1ccc(-c2nn[nH]n2)cc1OCC,-0.435
13,Cn1nc(CC(=O)Nc2cccc3ncccc23)c2ccccc2c1=O,2.01
14,O=C(C1CCCO1)N1CCN(C(=S)Nc2ccc(Cl)cc2)CC1 (configuration not stated),0.538
15,CCOc1cccc(OCCn2cnc3ccccc3c2=O)c1,-0.0247
16,CC(=O)Nc1ccc(S(=O)(=O)N(C)CC(=O)Nc2ccccc2N2CCOCC2)cc1,-0.0453
17,Cc1cc(Cl)c(S(=O)(=O)N2CCCC2)cc1OCC(=O)NC1CCCCC1,-0.525
18,CCOC(=O)N1CCC(n2c(SCC(=O)c3ccccc3)nc3ccsc3c2=O)CC1,0.366
19,O=C(O)CCN=C1CCc2ccccc2N1,-0.0864
20,O=S(=O)(c1ccc(F)cc1)c1nc(-c2ccccc2F)oc1N1CCCCC1,-0.159
